Columns and labels:
[1] = tested on: human peripheral blood mononuclear cells; experiment: Inhibition of R848-induced TNF-α production from human peripheral blood mononuclear cells by BDCA2-ADC; assay type: cell-based; conditions: 5 μM R848, 24 h
Experimental: The inhibitory effects of the antibody-drug conjugate molecules of the present application on the production from peripheral blood mononuclear cells were detected. Peripheral blood mononuclear cells produce a large number of cytokines after the stimulation of the TLR7/8 agonist R848. The peripheral blood mononuclear cells were treated in vitro with the BDCA2 antibody-drug conjugate at different concentrations, and IFNα and TNFα produced by the peripheral blood mononuclear cells were quantitatively detected after the stimulation of 5 μM R848 for a certain period of time. The in vitro activity of the ligand-drug conjugates was evaluated based on the extent of cytokine inhibition.
The cryopreserved human peripheral blood mononuclear cells were thawed, resuspended in a complete culture medium and counted, and the cell suspension was adjusted to 2.5×10^6 cells/mL with the culture medium and cultured overnight. […] The supernatant was collected, and the TNF-α and IFN-α concentration levels in the supernatant were detected using an ELISA kit. Dose-response data were fitted to an S-shaped curve using non-linear regression, and IC50 values were calculated.
TNF-α concentration assay was performed using a Dakewe TNF-α ELISA kit (Cat. No. 1117202). […] The reading at wavelength 450 nm was detected using an M2e instrument within 10 min after the termination. […]

[2] = tested on: cynomolgus monkey whole blood stimulated with CpG-A; experiment: TNF-α after in vitro CpG-A stimulation of whole blood of dosed cynomolgus monkeys; assay type: in vivo; design: average expression level of TNFα on days 0-33 after administration: unit not given here; conditions: 10 mg/kg i.v.
Experimental: Cytokine expression was detected by whole blood stimulation in vitro.
The cells were cultured at 37° C. for 18 h, and the supernatant was collected. The TNF-α and IFN-α concentration levels in the supernatant were detected using an ELISA kit.
TNF-α concentration assay was performed using a R&D Primate TNF-α DuoSet ELISA kit (Cat. No. DY1070). 50 μL of serially diluted cytokine standard was added to each standard well, 50 μL of test sample was added to each sample well, and 50 μL of PBS was added to each blank control well. The cells were incubated at 37° C. for 2 h. The plate was washed 3 times: the liquid in each well was removed, and 300 μL of 1× PBST buffer working solution was added to each well; and after 1 minute of residence, the liquid in each well was discarded. 100 μL of detection antibody working solution was added to each well, and the cells were incubated at 37° C. for 1 h. […] The reading at wavelength 450 nm was detected using a Molecular device spectra max plus384 instrument within 10 min after the reaction was stopped.
Evaluation criteria in FIGS. 12-13: the average expression level changes of IFNα/TNFα were evaluated after in vitro stimulation of the whole blood with CpGA at 200 μg/mL on days 0-33 after administration. […]

B1: Hu033-03-ADC (conjugate)
heavy: EVQLVESGGGLVKPGGSLRLSCAASGFTFSSYGMSWVRQAPGKGLEWVSTISSGDSYTYYPDSVKGRFTISRDNAKNSLYLQMNSLRAEDTAVYYCARQIYYDYAYYFDFWGQGTTVTVSS[human IgG1 constant region not spelt out]
light: DIVLTQSPASLAVSPGQRATITCRASESVSFRTSHLMHWYQQKPGQPPKLLIYGASNLESGVPARFSGSGSETDFTLTINPVEAEDTANYFCQQSIEDPPTFGGGTKVEIKRTVAAPSVFIFPPSDEQLKSGTASVVCLLNNFYPREAKVQWKVDNALQSGNSQESVTEQDSKDSTYSLSSTLTLSKADYEKHKVYACEVTHQGLSSPVTKSFNRGEC
For B1, the “inhibitory effect on TNF-α secretion” value [1] was “stronger ability to inhibit TNF-α secretion”, the “TNFα expression level compared to the blank control group” value ([2]; CpGA-stimulated whole blood) was “significantly reduced” and the “average expression level of TNFα on days 0-33 after administration” value ([2]; whole blood stimulated with CpGA 200 μg/mL, before administration 5515 (FIG. 13b) and 3977 (FIG. 13c)) was 4131.

Reference: US20260216362A1, “ANTI-BDCA2 ANTIBODY-DRUG CONJUGATE AND USE THEREOF” (DUALITY BIOLOGICS (SHANGHAI) CO., LTD., priority 2022, published 2026)
